Out of some 310,000 compounds screened, about 2,200 (0.71%) showed an effect of 50% or more. The effect is printed as a negative number. Some of the results follow.

The target of this test is human ether-à-go-go-related gene (hERG) potassium channel (human, UniProt Q12809). Kind of test: primary screen, population patch clamp on CHO cells stably expressing hERG.
Sequence of human ether-à-go-go-related gene (hERG) potassium channel (Q12809 whole entry, looked up): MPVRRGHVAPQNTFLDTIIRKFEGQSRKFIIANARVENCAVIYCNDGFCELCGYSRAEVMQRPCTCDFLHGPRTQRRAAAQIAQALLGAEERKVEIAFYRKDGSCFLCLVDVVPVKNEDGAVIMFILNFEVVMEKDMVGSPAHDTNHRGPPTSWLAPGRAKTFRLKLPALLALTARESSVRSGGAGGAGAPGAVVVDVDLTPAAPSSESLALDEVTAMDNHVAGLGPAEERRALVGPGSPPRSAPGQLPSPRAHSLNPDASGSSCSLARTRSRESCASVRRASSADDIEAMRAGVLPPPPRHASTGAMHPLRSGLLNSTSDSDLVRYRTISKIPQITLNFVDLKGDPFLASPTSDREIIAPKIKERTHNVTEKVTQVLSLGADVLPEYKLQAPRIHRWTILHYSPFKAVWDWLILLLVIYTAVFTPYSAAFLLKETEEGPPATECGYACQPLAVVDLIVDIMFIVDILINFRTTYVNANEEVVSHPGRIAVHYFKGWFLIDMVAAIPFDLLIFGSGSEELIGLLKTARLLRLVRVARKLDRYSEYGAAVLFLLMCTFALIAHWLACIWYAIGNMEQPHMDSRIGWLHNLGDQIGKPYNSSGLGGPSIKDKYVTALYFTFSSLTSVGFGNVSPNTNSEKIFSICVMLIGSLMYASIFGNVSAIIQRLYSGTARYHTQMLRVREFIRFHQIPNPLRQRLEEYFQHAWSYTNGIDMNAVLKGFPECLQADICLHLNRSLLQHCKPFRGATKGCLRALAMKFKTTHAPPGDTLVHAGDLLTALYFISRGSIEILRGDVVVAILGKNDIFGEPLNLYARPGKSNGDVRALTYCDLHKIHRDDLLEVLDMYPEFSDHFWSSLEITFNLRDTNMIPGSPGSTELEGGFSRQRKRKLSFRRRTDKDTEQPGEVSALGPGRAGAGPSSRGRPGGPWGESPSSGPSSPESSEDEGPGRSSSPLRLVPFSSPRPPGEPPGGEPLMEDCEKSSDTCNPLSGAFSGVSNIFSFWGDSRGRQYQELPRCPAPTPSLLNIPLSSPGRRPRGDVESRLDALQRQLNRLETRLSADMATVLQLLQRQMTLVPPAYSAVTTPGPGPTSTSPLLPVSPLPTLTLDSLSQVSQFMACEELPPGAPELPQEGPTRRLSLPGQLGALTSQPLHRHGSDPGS
As for `CN(CC(=O)N1CC=C(c2ccccc2)CC1)S(=O)(=O)c1cnc[nH]1`, the “hERG current change (%, negative = inhibition) at 1uM” value came to 4.99%. In the case of `O=[N+]([O-])c1ccc(NCCCO)c(C(F)(F)F)c1`, the “hERG current change (%, negative = inhibition) at 1uM” value was found to be 12.5%. On to `CSc1ncccc1C(=O)Nc1ccc(C)cn1`, for which the “hERG current change (%, negative = inhibition) at 1uM” value was found to be 9.49%. In the case of `Cc1nc(-c2ccccc2)sc1C(N)=O`, the “hERG current change (%, negative = inhibition) at 1uM” value is on record as 14.6%. For the molecule `Cc1cc(NC(=O)CS(=O)(=O)Cc2ccccc2)no1`, the “hERG current change (%, negative = inhibition) at 1uM” value stood at 10.1%. Consider `O=CN1CCN(C(C(=O)NC2CCCCC2)c2cc3c(cc2[N+](=O)[O-])OCO3)CC1` (stereo not shown), for which the “hERG current change (%, negative = inhibition) at 1uM” value was determined as 16.4%. The result for `CCCCCOC(=O)CSc1nnc(-c2cc(OC)c(OC)c(OC)c2)o1` reads 7.18%; that for `COc1ccc(S(=O)(=O)N(C)CC(=O)Nc2ccccc2C(F)(F)F)cc1OC`, 9.7%. Take `O=C1CCCC/C1=C\Nc1ccc(C(=O)O)c(O)c1`: the “hERG current change (%, negative = inhibition) at 1uM” value was 11.5%.

In the case of `CCOc1ccc(C(=S)N2CCCC2)cc1OCC`, the “hERG current change (%, negative = inhibition) at 1uM” value turned out to be 12.7%. The result for `O=[N+]([O-])c1cc(/C=N/O)ccc1Oc1cccc(Cl)c1` reads 6.79%. The result for `CCN(CC(=O)Nc1c(F)cccc1F)C(=O)/C=C/c1ccc(C)o1` reads 22.2%; that for `Cc1onc(-c2ccccc2)c1C(=O)NC(C)c1ccc2c(c1)OCO2` (stereo not shown), 8.07%.

With `O=C(NCCc1ccc(F)cc1)Nc1ccccc1`, the “hERG current change (%, negative = inhibition) at 1uM” value is 2.25%. Then `O=C(c1ccc([N+](=O)[O-])o1)N1CCN(c2nc3ccc(F)cc3s2)CC1`, with -9.65%; and `Cc1cc(-c2nnc(CCC(=O)N(C)Cc3cccc4ccccc34)o2)no1`, with -6.91%; and `O=C(Oc1ccccc1)n1c(=S)oc2ccccc21`, with 12.8%. The result for `CC1(C(=O)O)Sc2[nH]c(=O)sc2C2c3ccccc3OC(=O)C21` (stereo not shown) reads 15.7%; that for `CCOC(=O)CCc1c(C)nc(SCCN2CCCC2)c(C#N)c1C`, -19.8%; that for `CC1CCCC(C)N1C(=O)CSc1ccc(-c2ccc3c(c2)OCCO3)nn1` (stereo not shown), -1.69%. The result for `COc1ccc(C)cc1NC(=O)Cn1cnc2sc(C)c(S(=O)(=O)N3CCOCC3)c2c1=O` reads 10.3%. In the case of `Cc1ccc2c(c1)c1c3n2CCN(CCC(=O)O)C3CCC1` (stereo not shown), the “hERG current change (%, negative = inhibition) at 1uM” value is reported as 9.52%. Then `COc1cc(OC)c(NC(=O)c2sc3ncn(CC(=O)N4CCOCC4)c(=O)c3c2C)cc1Cl`, with 14.4%; and `Cc1ccc(S(=O)(=O)N2CCCN(S(=O)(=O)c3ccc4ccccc4c3)CC2)cc1`, with 11.3%; and `CC1C(=O)N2CCCc3cc(NC(=O)C(=O)NCCN4CCOCC4)cc1c32` (stereo not shown), with 12.2%. As for `O=S(=O)(NC1=NCCCCC1)c1ccc(F)cc1`, the “hERG current change (%, negative = inhibition) at 1uM” value stood at 8.98%.

In the case of `COc1ccc(NS(=O)(=O)c2ccc(C)c(C(=O)NCc3cccnc3)c2)cc1`, the “hERG current change (%, negative = inhibition) at 1uM” value is given as 7.85%. Consider `O=C(c1ccc(OC2CCN(Cc3ccccc3C(F)(F)F)CC2)cc1)N1CCCCC1`, for which the “hERG current change (%, negative = inhibition) at 1uM” value is recorded as 11.5%.

For `COC(=O)c1[nH]c(C)c(/C(O)=C2\C(=O)C(=O)N(CCN3CCOCC3)C2c2ccc(C)o2)c1C` (stereo not shown), the “hERG current change (%, negative = inhibition) at 1uM” value was -2.34%. The result for `Cc1cccc(N(CC(=O)NCC2CCCO2)C(=O)CCC(=O)Nc2nccs2)c1` (stereo not shown) reads 13%; that for `COc1ccc(OCC(=O)Nc2nnc(C)s2)cc1`, 12.8%. For `Cc1oc(-c2ccccc2Cl)nc1CS(=O)(=O)CC(=O)NC(C)c1ccccc1` (stereo not shown), the “hERG current change (%, negative = inhibition) at 1uM” value was 11.5%. The result for `O=C(NC1CCCCC1)c1cc(-c2ccco2)on1` reads 13%; that for `NP(=O)(OCC(F)(F)F)Oc1cccc2ccccc12` (stereo not shown), 4.02%. For `CC(C)(C)C(=O)CN1C(=O)NC2(CCOc3ccccc32)C1=O` (stereo not shown), the “hERG current change (%, negative = inhibition) at 1uM” value was found to be 15.9%. Then `Cc1noc(C)c1C(=O)Nc1ccccc1N1CCCC1`, with 6.57%; and `CCC(C)/C(C)=N/NC(=O)c1ccc(CSc2nc3ccccc3s2)cc1` (stereo not shown), with -2.07%. Then `COc1ccc(NC(=O)c2cc(=O)[nH]c(=O)[nH]2)cc1S(=O)(=O)Nc1ccccc1Cl`, with 5.23%; and `O=C1c2[nH]nc(-c3ccccc3O)c2C(c2cccc(Cl)c2)N1CC1CCCO1` (stereo not shown), with 11.6%; and `C=CCn1c(COc2ccc(OC)cc2)nnc1SCn1nnc2ccccc2c1=O`, with -2.1%.

As for `COc1ccc(OCC#CCN2CC(C)OC(C)C2)cc1.O=C(O)C(=O)O` (stereo not shown), the “hERG current change (%, negative = inhibition) at 1uM” value is 2.64%. Then `C=CCN(Cc1nc(-c2ccc(OC)c(OC)c2)oc1C)C1CCS(=O)(=O)C1` (stereo not shown), with 11.4%. The result for `O=C(COc1ccc(NC(=O)c2cccs2)cc1)c1ccc(F)cc1` reads 14.1%. Take `CCCc1ccc(OCCNC(=O)c2ccccc2Br)cc1`: the “hERG current change (%, negative = inhibition) at 1uM” value was found to be 11.6%. On to `COc1ccc(S(=O)(=O)Nc2cc(C(=O)NCCCOC(C)C)ccc2N2CCOCC2)cc1`, for which the “hERG current change (%, negative = inhibition) at 1uM” value is reported as 6.26%.

As for `Cc1ccc(C)c(NC(=O)CN(C)C(=O)Cc2coc3cc(C)c(C)cc23)c1`, the “hERG current change (%, negative = inhibition) at 1uM” value is listed as 7.55%.

Regarding `CC1=CC(C)(C)n2c(O)c(C3=NC(=S)NC3=O)c3cc(OC(=O)c4cccc5ccccc45)cc1c32`, the “hERG current change (%, negative = inhibition) at 1uM” value is listed as 17.3%. On to `NC(=O)CSc1nnc(Cc2ccc3c(c2)OCO3)o1`, for which the “hERG current change (%, negative = inhibition) at 1uM” value is on record as -7.08%. As for `Cn1c(=O)c2c(nc(CN3CCc4ccccc4C3)n2CCCO)n(C)c1=O`, the “hERG current change (%, negative = inhibition) at 1uM” value is on record as -0.628%.

`COc1ccc(CNC(=O)C(c2ccco2)N(Cc2ccccc2)C(=O)Cc2cccs2)cc1` (stereo not shown): the “hERG current change (%, negative = inhibition) at 1uM” value is on record as 13.1%. Then `Cc1ccc(S(=O)(=O)CCC(=O)Nc2nc(-c3cccnc3)cs2)cc1`, with 15.1%. Take `COc1ccc2oc(-c3ccccc3)c(C(=O)N3CCOCC3)c2c1`: the “hERG current change (%, negative = inhibition) at 1uM” value is 8.86%. With `CCN(CC)S(=O)(=O)c1ccc(N2CCOCC2)c(NC(=O)c2c3c(nc4ccccc24)CCC3)c1`, the “hERG current change (%, negative = inhibition) at 1uM” value is on record as 6.32%. The result for `Cc1ccccc1OCC(=O)OCC(=O)Nc1cc(S(C)(=O)=O)ccc1Cl` reads 1.96%; that for `COc1ccc(-c2nc(N)nc(C(F)(F)F)c2-c2csc(C)n2)c(O)c1`, 8.04%.

For the origin of these results see article PMC4336329 (PLoS ONE, 2015).
